Kd data for six molecules are collected here from patent publication US20250270341A1 (Alector, published 2025).

To fix the notation:
T1: huCD98hc ECD Avi-His (human, UniProt P08195 105-529)
T1 construct: biotinylated on the Avi tag where captured on streptavidin; also called Human CD98-AVI-His; Human CD98hc-AVI-His
T1 sequence: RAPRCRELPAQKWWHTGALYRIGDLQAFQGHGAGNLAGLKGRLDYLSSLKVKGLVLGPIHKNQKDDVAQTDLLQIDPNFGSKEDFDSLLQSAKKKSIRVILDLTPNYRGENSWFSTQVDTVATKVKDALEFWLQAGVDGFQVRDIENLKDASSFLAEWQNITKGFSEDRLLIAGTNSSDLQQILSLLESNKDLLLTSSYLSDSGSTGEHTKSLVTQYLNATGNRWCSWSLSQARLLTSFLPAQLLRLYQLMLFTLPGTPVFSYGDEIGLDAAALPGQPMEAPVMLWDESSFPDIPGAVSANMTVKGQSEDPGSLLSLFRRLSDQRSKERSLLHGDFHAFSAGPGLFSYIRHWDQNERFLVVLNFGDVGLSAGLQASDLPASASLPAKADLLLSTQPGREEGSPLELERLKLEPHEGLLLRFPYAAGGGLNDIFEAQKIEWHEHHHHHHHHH

T2: Cyno CD98hc ECD Avi-His (cynomolgus macaque, UniProt P08195 105-529 (human entry))
T2 construct: biotinylated on the Avi tag where captured on streptavidin; also called Cyno CD98-AVI-His; Cyno CD98hc-AVI-His
T2 chain: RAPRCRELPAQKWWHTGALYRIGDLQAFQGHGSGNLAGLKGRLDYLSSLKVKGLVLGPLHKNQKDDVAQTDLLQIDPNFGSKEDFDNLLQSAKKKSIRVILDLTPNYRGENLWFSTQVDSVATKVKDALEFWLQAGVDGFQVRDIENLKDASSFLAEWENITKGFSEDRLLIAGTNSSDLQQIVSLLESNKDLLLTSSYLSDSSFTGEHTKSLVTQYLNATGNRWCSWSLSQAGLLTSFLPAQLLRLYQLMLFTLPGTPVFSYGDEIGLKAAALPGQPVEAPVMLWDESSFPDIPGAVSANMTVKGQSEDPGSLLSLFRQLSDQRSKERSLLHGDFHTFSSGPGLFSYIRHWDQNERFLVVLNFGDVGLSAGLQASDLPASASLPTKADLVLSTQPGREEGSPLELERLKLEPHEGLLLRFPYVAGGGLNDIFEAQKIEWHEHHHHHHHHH

B1: CD98hc.05.007 (2+1 bispecific antibody) (bispecific antibody)
heavy 1: EVRLLESGGGLVQPGGSLRLSCAASGFTFSNYAMGWVRQAPGKGLEWVSAISGSGGSTYYADSVKGRFTTSRDDSKNALYLQMNSLRAEDTAVYYCARGGPGWYAADVWGQGTTVTVSSASTKGPSVFPLAPSSKSTSGGTAALGCLVKDYFPEPVTVSWNSGALTSGVHTFPAVLQSSGLYSLSSVVTVPSSSLGTQTYICNVNHKPSNTKVDKKV[here human IgG1 Fc with changes without letters]GGGGSGGGGSGGGGSDVKLVESGGDLVKPGGSLKLSCAASGFTFSSYSMSWVRQTPEKRLEWVATITSGGSYTYFPDSVKGRFTISRDNAKNTLYLQVSNLKSEDTAMYYCTRGPSFGNYLDYWGQGTTLTVSSGGSEGKSSGSGSESKSTGGSDILMTQSPSSMSASLGDTVSITCHASQGISSNIGWLQQKPGKSFKGLIYRGTNLEDGVPSRFSGSGSGADYSLTISSLESEDFADYYCVQYAHFPYTFGGGTKLEIK
heavy 2: EVRLLESGGGLVQPGGSLRLSCAASGFTFSNYAMGWVRQAPGKGLEWVSAISGSGGSTYYADSVKGRFTTSRDDSKNALYLQMNSLRAEDTAVYYCARGGPGWYAADVWGQGTTVTVSS[here human IgG1 constant region with changes without letters]
light: DIQMTQSPSSLSASVGDRVTITCRASQSISSYLNWYQQKPGKAPKLLIYAASSLQSGVPSRFSGSGSGTDFTLTISSLQPEDFATYYCQQADLPAFAFGGGTKVEIKRTVAAPSVFIFPPSDEQLKSGTASVVCLLNNFYPREAKVQWKVDNALQSGNSQESVTEQDSKDSTYSLSSTLTLSKADYEKHKVYACEVTHQGLSSPVTKSFNRGEC
B2: CD98hc.05.144 (2+1 bispecific antibody) (bispecific antibody)
heavy 1: EVRLLESGGGLVQPGGSLRLSCAASGFTFSNYAMGWVRQAPGKGLEWVSAISGSGGSTYYADSVKGRFTTSRDDSKNALYLQMNSLRAEDTAVYYCARGGPGWYAADVWGQGTTVTVSSASTKGPSVFPLAPSSKSTSGGTAALGCLVKDYFPEPVTVSWNSGALTSGVHTFPAVLQSSGLYSLSSVVTVPSSSLGTQTYICNVNHKPSNTKVDKKV[here human IgG1 Fc with changes without letters]GGGGSGGGGSGGGGSEVQLVESGGALVKPGGSLKLSCAASGFAFSSFDMSWVRQTPERRVEWVAYISGGGGSTYHPDTVKGRFAISRDNAKNTLYLHMNSLKSEDTAMYYCVRQGSRPWFAYWGQGTLVTVSSGGSEGKSSGSGSESKSTGGSDFVMSQSPSSLTVSVGEKVTMTCKSSQSLLYSYTQKNYLAWYQQKPGQSPNLLIYWASTRESGVPDRFAGSGSGTDFTLTISSVEAEDLAVYYCQQYSNYPPTFGGGTKLEIK
heavy 2: EVRLLESGGGLVQPGGSLRLSCAASGFTFSNYAMGWVRQAPGKGLEWVSAISGSGGSTYYADSVKGRFTTSRDDSKNALYLQMNSLRAEDTAVYYCARGGPGWYAADVWGQGTTVTVSS[here human IgG1 constant region with changes without letters]
light: B1 light
B3: CD98hc.05.166 (2+1 bispecific antibody) (bispecific antibody)
heavy 1: EVRLLESGGGLVQPGGSLRLSCAASGFTFSNYAMGWVRQAPGKGLEWVSAISGSGGSTYYADSVKGRFTTSRDDSKNALYLQMNSLRAEDTAVYYCARGGPGWYAADVWGQGTTVTVSSASTKGPSVFPLAPSSKSTSGGTAALGCLVKDYFPEPVTVSWNSGALTSGVHTFPAVLQSSGLYSLSSVVTVPSSSLGTQTYICNVNHKPSNTKVDKKV[here human IgG1 Fc with changes without letters]GGGGSGGGGSGGGGSEVQLLQSGAELVKPGASVKLSCTASGFNILDTYIHWVMQRPEQGLEWIGRIDPANGHVKYDPKFQGKATITADTSSNTAYLQLSSLTSEDTAVYYCASPFTTVVATNIYYYGLGYWGHGTSVTVSSGGSEGKSSGSGSESKSTGGSDIVMTQSHKFMSTSLGDRVSITCKASQGVFTAVAWYQQKPGQSPKLLIYSASYRYTGVPDRFTGSGSGTDFTFTISSVQAEDLAVYYCQQHYSTPWTFGGGTKLEIK
heavy 2: EVRLLESGGGLVQPGGSLRLSCAASGFTFSNYAMGWVRQAPGKGLEWVSAISGSGGSTYYADSVKGRFTTSRDDSKNALYLQMNSLRAEDTAVYYCARGGPGWYAADVWGQGTTVTVSS[here human IgG1 constant region with changes without letters]
light: B1 light
B4: CD98hc.05.193 (2+1 bispecific antibody) (bispecific antibody)
heavy 1: EVRLLESGGGLVQPGGSLRLSCAASGFTFSNYAMGWVRQAPGKGLEWVSAISGSGGSTYYADSVKGRFTTSRDDSKNALYLQMNSLRAEDTAVYYCARGGPGWYAADVWGQGTTVTVSSASTKGPSVFPLAPSSKSTSGGTAALGCLVKDYFPEPVTVSWNSGALTSGVHTFPAVLQSSGLYSLSSVVTVPSSSLGTQTYICNVNHKPSNTKVDKKV[here human IgG1 Fc with changes without letters]GGGGSGGGGSGGGGSEVQLVESGGGLVQPGGSLKVSCTTSGFTFSDFDMSWIRQTPEKRLEWVAYISSGGGSTYFPDTVKGRFTISRDNAKSTLYLQMSSLKSEDTAMYYCARHVGVRPWFDYWGQGTLVTVSSGGSEGKSSGSGSESKSTGGSDIVMSQSPSSLAVSVGEKVTMTCKSSQSLLYSSNQKNYLAWYQQKPGQSPKLLIYWASTRESGVPDRFTGSGSGTDFTLTISSVKAEDLALYYCQQYHYYPPTFGAGTKLEIK
heavy 2: EVRLLESGGGLVQPGGSLRLSCAASGFTFSNYAMGWVRQAPGKGLEWVSAISGSGGSTYYADSVKGRFTTSRDDSKNALYLQMNSLRAEDTAVYYCARGGPGWYAADVWGQGTTVTVSS[here human IgG1 constant region with changes without letters]
light: B1 light
B5: CD98hc.05.168 (2+1 bispecific antibody) (bispecific antibody)
heavy 1: EVRLLESGGGLVQPGGSLRLSCAASGFTFSNYAMGWVRQAPGKGLEWVSAISGSGGSTYYADSVKGRFTTSRDDSKNALYLQMNSLRAEDTAVYYCARGGPGWYAADVWGQGTTVTVSSASTKGPSVFPLAPSSKSTSGGTAALGCLVKDYFPEPVTVSWNSGALTSGVHTFPAVLQSSGLYSLSSVVTVPSSSLGTQTYICNVNHKPSNTKVDKKV[here human IgG1 Fc with changes without letters]GGGGSGGGGSGGGGSEVQLVESGGGLVKPGGSLKLSCAASGFAFSTYDMSWVRQTPEKRLEWVAYISSGGDTTYYPDTVKGRFTISRDNAKNTLYLQMSSLKSEDSAIYYCARQDYRPYFAYWGQGTLVTVSSGGSEGKSSGSGSESKSTGGSDIVMSQSPSSLAVSVGEKVTVSCKSSQNLLYSSNQKNYLAWYQQKPGQSPKLLIYWASTRESGVPDRFTGSGSGTDFTLTISSVKAEDLAVYYCQQYSYYPPTFGGGTKLEIK
heavy 2: EVRLLESGGGLVQPGGSLRLSCAASGFTFSNYAMGWVRQAPGKGLEWVSAISGSGGSTYYADSVKGRFTTSRDDSKNALYLQMNSLRAEDTAVYYCARGGPGWYAADVWGQGTTVTVSS[here human IgG1 constant region with changes without letters]
light: B1 light
B6: CD98hc.05.052 (2+1 bispecific antibody) (bispecific antibody)
heavy 1: EVRLLESGGGLVQPGGSLRLSCAASGFTFSNYAMGWVRQAPGKGLEWVSAISGSGGSTYYADSVKGRFTTSRDDSKNALYLQMNSLRAEDTAVYYCARGGPGWYAADVWGQGTTVTVSSASTKGPSVFPLAPSSKSTSGGTAALGCLVKDYFPEPVTVSWNSGALTSGVHTFPAVLQSSGLYSLSSVVTVPSSSLGTQTYICNVNHKPSNTKVDKKV[here human IgG1 Fc with changes without letters]GGGGSGGGGSGGGGSDMQLQESGPGLVKPSQSLSLTCTVTGYSITSDYAWNWIRQFPGNKLEWMGFISYSGTTSYTPSLKRRISITRDTSKNQFFLRLNSVTPEDTATYYCAKSAFYGNVWFAYWGQGTLVTVSSGGSEGKSSGSGSESKSTGGSQFVLTQSPAIMSASPGEKVTISCSASSSVSYMFWYQQKPGSSPKPWISHTSNLASGVPARFSGSGSGTSYSLTISNMEAEDAATYYCQQFHDYPWTFGGGTKLEIK
heavy 2: EVRLLESGGGLVQPGGSLRLSCAASGFTFSNYAMGWVRQAPGKGLEWVSAISGSGGSTYYADSVKGRFTTSRDDSKNALYLQMNSLRAEDTAVYYCARGGPGWYAADVWGQGTTVTVSS[here human IgG1 constant region with changes without letters]
light: B1 light

The first assay deals with T1, huCD98hc ECD Avi-His. Put plainly: SPR, Carterra LSA, antibody immobilized. On the procedure:
(§1) Binding kinetics of 2+1 anti-CD98hc bispecific antibodies (from the hybridoma campaigns) to human and cyno CD98hc Avi-His were evaluated using a Carterra LSA instrument (Carterra, Salt Lake City, UT). The 2+1 anti-CD98hc bispecific antibodies were prepared in duplicates by diluting 50-fold into 10 mM Acetate, pH 5.0 (Carterra) to give final concentration of 20 μg/mL. An HC200M sensor chip (Carterra) was activated using the single channel flow cell with a 7-minute injection of a 1:1:1 mixture of 100 mM MES pH 5.5, 100 mM sulfo-NHS, 400 mM EDC (all reconstituted in MES pH 5.5; 100 μl of each mixed in vial immediately before running assay). After switching to the multi-channel array flow cell, the antibodies were injected over the activated chip in four 96-spot arrays for 15 minutes each. The remaining unconjugated active groups on the chip were then blocked by injecting 1M Ethanolamine pH 8.5 (Carterra) for 7 minutes using the single channel flow cell. The resulting sensor chip contained eight spots for each antibody, at four different densities. Two independent experiments were performed as follows, resulting in an N of between one and eight determinations for each antibody. Spots that yielded less than 20 RU of analyte binding were excluded from further analysis.
(§2) After priming with running buffer HBS-EP+ (Teknova) with 0.5 mg/ml BSA (MP Biomedicals), the immobilized 2+1 anti-CD98hc bispecific antibodies were tested for their ability to bind to several forms of CD98hc Avi-His, including human and cyno orthologs described above. Estimates of affinity were generated by injecting each analyte over the entire antibody array using the single channel flow cell. CD98hc Avi-His analytes were diluted with running buffer, in a series of six, three-fold serial dilutions starting from 600 nM for human and cyno CD98hc Avi-His. Analytes were injected for 5 minutes, and dissociation was followed for 10 minutes. After each analyte injection, antibodies were regenerated with Pierce IgG Elution Buffer (ThermoScientific). Data were processed and analyzed using NextGenKIT high-throughput kinetics analysis software (Carterra).
(§3) The equilibrium dissociation constants (KD) were calculated from the fitted association and dissociation rate constants (k-on and k-off) for 2+1 anti-CD98hc bispecific antibodies of the present disclosure.
In general, Kd refers to the concentration at which binding is half-saturated. Read a low Kd as tighter binding. As for B1, the dissociation constant Kd was 3.1 nM.

B2 displayed an equilibrium dissociation constant (Kd) of 15 nM.

B3 came in with a Kd of 9.1 nM. Against the preceding molecule, the Kd is about 1.6-fold lower.

Take B4: the dissociation constant Kd came to 11 nM.

B5 returned a Kd of 20 nM.

The molecule B6 gave a Kd of 13 nM.

For a further assay, the target named is T2, Cyno CD98hc ECD Avi-His. Put plainly: SPR, Carterra LSA, antibody immobilized. As for the experimental part: as §1, §2, §3
B1 displayed a Kd of 3.8 nM.

In the case of B2, binding was characterised by a dissociation constant (Kd) of 63 nM.

Consider B3, for which the dissociation constant (Kd) came to 39 nM. Against the preceding molecule, the Kd is about 1.6-fold lower.

B4 returned a dissociation constant (Kd) of 22 nM.

In turn, B5 returned a Kd of 100 nM.

On to B6, for which the dissociation constant Kd worked out at 4.1 nM.
